# Test results published in ChEMBL document CHEMBL4888484, “Replenishing the malaria drug discovery pipeline: Screening and hit evaluation of the MMV Hit Generation Library 1 (HGL1) against asexual blood stage Plasmodium falciparum ,using a nano luciferase reporter read-out” (2022).
# Screen size: about 4,800 compounds; about 420 (8.8%) showed an effect of 50% or more. Some of the results follow.
# System: Plasmodium falciparum
# Experiment: Confirmatory screen in NF54 nanoGlo assay, in single point, at 2uM, 72h
# Format: functional, Erythrocyte
# Conditions: timepoint 72 hour
row,SMILES,% Inhibition [%]
1,CCc1ccc2ncc(C(=O)c3ccc(Cl)cc3)c(O)c2c1,19
2,CN(C)CCN(C)c1ccc(Br)cc1NCc1cncn1C,16
3,CS(=O)(=O)N1CC[C@H](CC(=O)Nc2ccccc2)C1,-14
4,CC[C@@H](CO)NC(=O)Nc1ccc(Cl)cc1,6
5,Cc1c(-c2ccccc2OC(=O)c2ccccc2)cnn1-c1ccccc1,-4
6,COc1ccccc1OCC(=O)Nc1ccccc1-n1cnnc1C,5
7,Cc1nc2cc(-c3ccc(Cl)c(Cl)c3)nn2c(N)c1-c1ccccc1,-2
8,CCc1ccc(O[C@@H](C)C(=O)OC)c(COc2ccc(-n3c(=O)cc(C(F)(F)F)n(C)c3=O)cc2)c1,-5
9,COc1cccc(-c2nc(C)c(C(=O)Nc3nc(C(C)C)n[nH]3)s2)c1,74
10,Cc1nnc2ccc(S(=O)(=O)N(CC#N)c3ccccc3)cn12,5
11,C[C@@]1(C(=O)NCc2ccccc2)Cn2nc(-c3ccccc3)cc2C(=O)N1c1ccc2c(c1)OCCO2,58
12,CC[C@H]1Cn2c(C(=O)NCc3ccc(C)cc3)cc3c(Cl)ccc(c32)O1,-12
13,c1cc(-c2noc(C3CC3)n2)nc(N2CCNCC2)n1,-12
14,O=C1Nc2ccccc2[C@@]12Nc1ccccc1CO2,4
15,O=C(C1CC1c1ccccc1)N(c1ccc(F)cn1)C1CCOCC1 (centres undefined),3
16,Cc1oc(=S)n2c1C[C@@H](c1ccccc1)N(Cc1ccccc1)C2,-15
17,COc1cccc(CC(=O)N2CCC[C@@]3(C2)Nc2ccccc2N=C3NC(C)(C)C)c1,-1
18,CCC(=O)N1CC[C@H](N(C(C)=O)C2CCOCC2)C1,-12
19,CCc1sc(NC(=O)CC#N)nc1-c1ccc(Cc2ccccc2)cc1,-11
20,CCn1c(=O)c(N2CCN(C(=O)Nc3ccc(OC)cc3OC)CC2)nc2cccnc21,-15
21,CN(Cc1ccccc1)C(=O)C[C@H]1CCN(C(=O)NC2CCCC2)C1,-1
22,C[n+]1ccc(-c2ncc(-c3ccccc3)o2)c2ccccc21,75
23,CC1(C)CCC[C@@H]1NCc1nccc(N)n1,2
24,O=C(Cc1c[nH]c2ccccc12)Nc1ccc(Cl)c2ncccc12,5
25,O=C(c1cc(-c2ccco2)n[nH]1)N1CCC(N2CCC(Oc3ccccc3F)CC2)CC1,41
26,CC[C@](C)(NCCc1c[nH]c2ccccc12)c1nnnn1CCOC,-2
27,O=C(O)C1CC=CCC1C(=O)N1CCCCCC1 (centres undefined),2
28,CC(C)N(C)S(=O)(=O)Nc1ccc(Br)cc1O,-2
29,CCS(=O)(=O)c1ccc(N2CC[C@H](C(N)=O)C2)cc1,-1
